The other results are listed elsewhere or left out. The full chains were built here from the parent and the listed change. Inactive controls read about 0.05.
B1: TEV protease; numbered along this chain (parent)
chain: MGESLFKGPRDYNPISSSICHLTNESDGHTTSLYGIGFGPFIITNKHLFRRNNGTLVVQSLHGVFKVKDTTTLQQHLVDGRDMIIIRMPKDFPPFPQKLKFREPQREERICLVTTNFQTKSMSSMVSDTSCTFPSGDGIFWKHWIQTKDGQCGSPLVSTRDGFIVGIHSASNFTNTNNYFTSVPKNFMELLTNQEAQQWVSGWRLNADSVLWGGHKVFMVKPEEPFQPVKEATQL

Variants of: B1
Experiment: raw area under fraction-flipped curve 0-4 h after induction (AUC4h, not background-subtracted), DNA-recorder readout of cleavage of the substrate (dimensionless); higher = more cleavage of the substrate by the protease variant
Details: temperature: 34 °C; time window: 0-4 h after rhamnose induction
Protocol: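 In vivo DNA recorder in E. coli TOP10(DE3) ΔrhaA at 34 °C. Each TEVp single-site mutant (parent TEVp 0) is paired with a single-site variant of the 7-mer TEVs (canonical ENLYFQ|S). The substrate sits between flexible linkers in a Bxb1-sfGFP-TEVs-SsrA fusion, so cleavage stabilises Bxb1 and speeds flipping of a recombination array, read by NGS. The value is the raw area under the fraction-flipped curve over 0-4 h after rhamnose induction (AUC4h), with ≥20 reads per time point. It is not background-subtracted; inactive controls average about 0.047.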
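Further: Bxb1 expression induced with 0.2% (w/v) L-rhamnose at OD600 near 0.5, cultures sampled hourly, flipped fraction per protease–substrate barcode pair counted by paired-end Illumina sequencing.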

Row | Variant | area with substrate ENLYFQA | area with substrate ENLYFQC | area with substrate ENLYFQG | area with substrate ENLYFQI | area with substrate ENLYFQK | area with substrate ENLYFQL | area with substrate ENLYFQR | area with substrate ENLYFQS | area with substrate ENLYFQT | area with substrate ENLYFQW
1 | S4A | 0.0996 | 0.138 | 0.102 | 0.0562 | 0.0642 | 0.0704 | 0.0566 | 0.112 | 0.0662 | –
2 | H76T | 0.0623 | 0.0751 | – | – | 0.0686 | 0.0371 | 0.0558 | 0.07 | 0.0523 | 0.0595
3 | H76F | 0.0765 | 0.101 | 0.0673 | 0.0567 | – | 0.0533 | 0.0429 | 0.0863 | 0.071 | –
4 | F6T | 0.112 | – | 0.0838 | – | – | – | – | 0.108 | – | 0.0617
5 | L99M | 0.095 | – | 0.0927 | 0.0486 | 0.0619 | 0.062 | 0.0566 | 0.0939 | – | 0.0697
6 | L99W | 0.0733 | – | – | 0.0398 | – | 0.0512 | – | 0.0902 | 0.0754 | –
7 | L99N | 0.0962 | – | 0.0799 | 0.0644 | – | – | 0.0573 | 0.0882 | – | 0.0569
8 | V57I | 0.105 | 0.114 | – | 0.051 | 0.0693 | 0.0476 | 0.055 | 0.106 | – | 0.071
9 | V57E | 0.13 | – | 0.11 | – | – | – | 0.0757 | 0.102 | – | –
10 | L22M | 0.073 | 0.139 | 0.109 | – | 0.0532 | 0.0546 | 0.0756 | 0.0988 | 0.0568 | 0.0604
11 | G28Y | 0.0672 | 0.0819 | – | 0.0502 | – | 0.0475 | 0.0558 | 0.0825 | – | –
12 | Q97E | 0.117 | – | – | 0.0186 | – | – | – | 0.104 | – | –
13 | Q97D | 0.0932 | – | – | – | – | 0.0584 | 0.0591 | 0.107 | – | –
14 | Q97N | 0.139 | 0.109 | 0.146 | 0.0476 | – | – | – | 0.103 | – | –
15 | Q97C | 0.0826 | – | – | – | – | – | – | 0.0967 | – | –
16 | Q97L | 0.0895 | – | – | – | – | 0.0588 | – | 0.105 | – | –
17 | Q75D | 0.0578 | – | 0.0708 | – | – | – | – | 0.0598 | – | 0.101

Row | Variant | area with substrate ENLYFQA | area with substrate ENLYFQC | area with substrate ENLYFQG | area with substrate ENLYFQI | area with substrate ENLYFQK | area with substrate ENLYFQL | area with substrate ENLYFQR | area with substrate ENLYFQS | area with substrate ENLYFQT | area with substrate ENLYFQW
18 | I86C | 0.0553 | 0.096 | 0.0694 | 0.0533 | – | 0.0441 | – | 0.091 | 0.0624 | –
19 | L61F | 0.107 | – | 0.0798 | – | 0.0657 | – | – | 0.0934 | – | 0.0659
20 | R102E | 0.141 | – | – | 0.0464 | – | 0.0748 | – | 0.0554 | – | 0.0397
21 | T44M | 0.0608 | 0.059 | 0.0715 | 0.0923 | – | 0.052 | 0.0582 | 0.0667 | 0.0527 | 0.0566
22 | T70F | 0.0652 | 0.0853 | 0.0762 | – | – | – | 0.0459 | 0.0794 | – | –
23 | E103I | 0.089 | 0.117 | 0.0909 | 0.0582 | 0.0695 | 0.0604 | 0.0588 | 0.0993 | 0.0646 | 0.0623
24 | K7Y | 0.126 | 0.165 | – | – | – | 0.0134 | 0.0681 | 0.105 | – | 0.0695
25 | V78D | 0.0702 | 0.08 | 0.0656 | 0.0622 | 0.0527 | 0.045 | 0.0554 | 0.0651 | 0.0553 | –
26 | V78E | 0.0727 | 0.0781 | 0.0582 | – | 0.0557 | 0.0669 | 0.0279 | 0.0721 | – | –
27 | V78N | 0.0675 | – | – | 0.0424 | 0.0637 | 0.0578 | – | 0.068 | 0.0641 | 0.0602
28 | I84H | 0.0697 | 0.0561 | – | – | 0.0604 | 0.0664 | 0.0512 | 0.0593 | 0.0536 | 0.0544
29 | V58G | 0.192 | – | – | 0.0254 | – | – | – | 0.0557 | – | –
30 | L33D | 0.0567 | 0.0707 | 0.0563 | 0.0592 | 0.0506 | 0.0503 | – | 0.0624 | – | 0.0557
31 | R50N | 0.1 | – | – | 0.0615 | – | – | – | 0.109 | 0.0955 | –
32 | R50W | 0.105 | – | – | – | – | – | 0.07 | 0.131 | 0.0729 | 0.0824
33 | R50Y | 0.123 | 0.157 | – | – | 0.0393 | 0.0598 | – | 0.129 | – | 0.0844
34 | N45G | 0.0821 | 0.0703 | – | 0.0547 | 0.0617 | 0.0557 | 0.0595 | 0.0926 | 0.0586 | 0.0456

Same assay, conditions: temperature: 34 °C; time window: 0-4 h after rhamnose induction

Row | Variant | area with substrate ENLYFQD | area with substrate ENLYFQH | area with substrate ENLYFQM | area with substrate ENLYFQN | area with substrate ENLYFQP | area with substrate ENLYFQV | area with substrate ENLYFQY | area with substrate ENLYFQF | area with substrate ENLYFQQ | area with substrate ENLYFQE
35 | H76F | 0.0498 | 0.0807 | 0.0542 | 0.077 | 0.0519 | 0.0611 | 0.0695 | – | – | –
36 | F6T | – | – | 0.0699 | 0.0608 | – | – | 0.0896 | – | – | –
37 | L99M | 0.0673 | – | 0.0711 | 0.0894 | 0.051 | – | 0.0958 | – | – | –
38 | L99W | 0.0507 | 0.0716 | – | – | – | 0.0495 | – | – | – | –
39 | L99N | – | 0.0724 | – | – | 0.0587 | 0.0854 | – | – | – | –
40 | V57I | – | – | – | – | – | – | 0.0782 | – | – | –
41 | V57E | – | – | – | 0.0696 | – | – | 0.0825 | 0.0767 | – | –
42 | L22M | 0.0751 | 0.0746 | 0.0711 | – | 0.055 | 0.0473 | 0.0662 | 0.0805 | 0.0699 | –
43 | G28Y | – | 0.049 | 0.0651 | 0.0514 | 0.0465 | – | – | – | 0.0474 | –
44 | Q97D | – | 0.0689 | – | 0.0862 | – | 0.0629 | – | – | – | –
45 | Q97N | – | – | – | 0.0338 | – | – | 0.0862 | – | – | –
46 | Q97C | – | – | – | – | – | – | 0.0842 | – | – | –
47 | Q75D | – | 0.0812 | 0.0524 | 0.058 | – | 0.0481 | – | 0.0685 | – | 0.0507
48 | I86C | – | 0.0608 | 0.075 | 0.065 | – | – | 0.0731 | 0.0722 | – | 0.0645
49 | L61F | – | – | 0.0848 | – | – | – | – | 0.146 | – | –
50 | R102E | – | 0.0327 | – | 0.0398 | – | – | – | – | – | –
51 | T44M | 0.064 | 0.0543 | 0.0566 | 0.0659 | – | 0.0525 | 0.0399 | 0.071 | – | –
52 | T70F | – | – | 0.0772 | 0.0586 | – | – | 0.0731 | – | – | –
53 | E103I | – | 0.0764 | 0.0769 | 0.0795 | – | 0.0515 | 0.0658 | – | – | –
54 | K7Y | – | – | – | 0.0621 | 0.0402 | – | 0.0905 | – | – | –
55 | V78D | – | – | – | 0.0539 | 0.0502 | – | 0.0547 | – | – | –
56 | V78E | 0.0593 | 0.0733 | 0.0627 | 0.0588 | – | 0.0547 | 0.0656 | – | – | –
57 | V78N | – | – | 0.0474 | – | 0.0629 | – | – | – | – | –
58 | I84H | 0.0604 | – | – | 0.0489 | – | – | 0.0266 | – | – | 0.0611
59 | V58G | – | – | 0.0613 | – | 0.0484 | 0.0426 | 0.0476 | 0.0511 | – | –
60 | L33D | – | 0.0609 | 0.0576 | – | – | – | 0.0498 | 0.0697 | 0.0359 | 0.0579
61 | R50N | – | – | – | – | – | – | – | – | 0.0773 | –
62 | R50W | – | 0.108 | 0.104 | 0.0994 | – | – | 0.104 | 0.0971 | – | –
63 | R50Y | 0.067 | 0.071 | 0.124 | – | 0.0634 | – | – | – | – | –
64 | N45G | 0.0656 | 0.0661 | 0.0728 | 0.0526 | – | 0.0798 | – | – | 0.0471 | –

Reference: the supplement of paper PMC12217912
